In the supplement of paper PMC4604168 (melanoma cell lines):
Some of the results follow. Most values come without repeats; read them as rough.

Legend:
Test in all cases: cell count relative to DMSO control; melanoma cells; higher = more viable cells
Settings in all cases: library dose: low library concentration; 72 h
WM115 = tested on: WM115
WM1716 = tested on: WM1716
WM1745 = tested on: WM1745
WM3526 = tested on: WM3526
WM3619 = tested on: WM3619
WM451Lu = tested on: WM451Lu
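Note: cell number obtained by counting DAPI-stained nuclei in high-throughput microscope images with image analysis software, screen run in 1,536-well plates.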

Compound	cell count (WM115)	cell count (WM1716)	cell count (WM1745)	cell count (WM3526)	cell count (WM3619)	cell count (WM451Lu)
Cc1ccc(NC(=O)c2cccc(N(C)C)c2)cc1NC(=O)c1ccc(O)cc1 + O=S(=O)(c1ccccc1)N(CC(F)(F)F)c1ccc(C(O)(C(F)(F)F)C(F)(F)F)cc1 [T0901317] (first compound 2 µM, partner dose 1.4 µM)	97.2%	99.7%	76%	89.1%	93.5%	120%
COc1cc2c(Oc3ccc4[nH]c(C)cc4c3F)ncnc2cc1OCCCN1CCCC1 [cediranib] + Cc1cc([N+](=O)[O-])ccc1NS(=O)(=O)c1cc(Cl)ccc1Cl [FH535] (first compound 0.4 µM, partner dose 1 µM)	87.5%	71%	98.8%	101%	109%	95.9%
Cc1ccc(NC(=O)c2cccc(N(C)C)c2)cc1NC(=O)c1ccc(O)cc1 + c1cc(-c2cnn3cc(-c4ccc(OCCN5CCCCC5)cc4)cnc23)ccn1 [Dorsomorphin] (first compound 2 µM, partner dose 0.4 µM)	97.8%	98.2%	83%	114%	83%	101%
CC(C)(C)c1cnc(CSc2cnc(NC(=O)C3CCNCC3)s2)o1 + c1cc(-c2cnn3cc(-c4ccc(OCCN5CCCCC5)cc4)cnc23)ccn1 [Dorsomorphin] (first compound 0.01 µM, partner dose 0.4 µM)	88.1%	98.1%	74%	99.4%	114%	113%
CCCCCCCCc1ccc(CCC(N)(CO)CO)cc1 [fingolimod] + Cn1c(=O)n(-c2ccc(C(C)(C)C#N)cc2)c2c3cc(-c4cnc5ccccc5c4)ccc3ncc21 [NVP-BEZ235] (first compound 2 µM, partner dose 0.004 µM)	84%	72.2%	76.8%	85.9%	77.3%	96.9%
NC(=O)c1ccc(N(C(N)=O)c2c(F)cccc2F)nc1-c1ccc(F)cc1F + Clc1ccc(Nc2nnc(Cc3ccncc3)c3ccccc23)cc1 [vatalanib] (first compound 0.4 µM, partner dose 2 µM)	110%	110%	109%	92%	78.2%	110%
CN(NC(=O)CC(=O)NN(C)C(=S)c1ccccc1)C(=S)c1ccccc1 + CCN(CC)CCCCNc1ncc2cc(-c3cc(OC)cc(OC)c3)c(NC(=O)NC(C)(C)C)nc2n1 [PD173074] (first compound 0.006 µM, partner dose 0.1 µM)	80.6%	87.7%	33.4%	92.8%	32%	110%
Cc1ccc(NC(=O)c2cccc(N(C)C)c2)cc1NC(=O)c1ccc(O)cc1 + CN(C)S(=O)(=O)c1ccc2c(c1)/C(=C/c1cc3c([nH]1)CCCC3)C(=O)N2 [SU6656] (first compound 2 µM, partner dose 0.4 µM)	82.1%	100%	86.7%	87.2%	90.1%	97.9%
NC(=O)c1ccc(N(C(N)=O)c2c(F)cccc2F)nc1-c1ccc(F)cc1F + O=C(O)c1ccc(-c2c[nH]c3ncc(-c4ccccc4)cc23)cc1C1CCCC1 [GSK650394] (first compound 0.4 µM, partner dose 0.16 µM)	102%	107%	101%	88.1%	99.6%	95.8%
Cc1ccc(NC(=O)c2cccc(N(C)C)c2)cc1NC(=O)c1ccc(O)cc1 + CCN(CC)CCCCNc1ncc2cc(-c3cc(OC)cc(OC)c3)c(NC(=O)NC(C)(C)C)nc2n1 [PD173074] (first compound 2 µM, partner dose 0.1 µM)	96.4%	112%	88.6%	105%	111%	96.2%
CCCCCCCCc1ccc(CCC(N)(CO)CO)cc1 [fingolimod] + O=c1cc(-c2cccc3c2Sc2ccccc2S3)oc(N2CCOCC2)c1 [KU55933] (first compound 2 µM, partner dose 1 µM)	90.4%	83.8%	80.8%	66.1%	99.7%	106%
NC(=O)c1ccc(N(C(N)=O)c2c(F)cccc2F)nc1-c1ccc(F)cc1F + COc1cc2ncnc(Nc3ccc(Oc4ccccc4)cc3)c2cc1OC [SrcI1] (first compound 0.4 µM, partner dose 2 µM)	91.4%	126%	95%	108%	118%	96%
CCCCCCCCc1ccc(CCC(N)(CO)CO)cc1 [fingolimod] + CCCS(=O)(=O)Nc1ccc(F)c(C(=O)c2c[nH]c3ncc(Cl)cc23)c1F [PLX4720] (first compound 2 µM, partner dose 0.08 µM)	85.3%	109%	87.1%	63.9%	94.4%	91.6%
